Data as given in PubChem BioAssay AID1476 (National Center for Advancing Translational Sciences (NCATS), 2009).
Screen size: about 200,000 compounds; about 4,500 (2.2%) were called active. This list was built around the results that the source calls inconclusive (neither active nor inactive); the mix of calls is not that of the screen. The call rests on the fitted dose curve; in most records, active means well fitted inhibition curve with a large enough effect; inconclusive means small, poorly fitted or top-dose-only effect, or effect the other way; inactive means flat fitted curve, though single readings scatter. Where the call is inconclusive, the potency comes from a doubtful curve fit.
Further: nearly all actives have a fitted effect of over 40% in size.
Potency means the concentration at half of the fitted maximal effect; tags describe the fitted curve by direction and shape.
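Wherever max response, negative = inhibition is given: plate controls were enzyme without inhibitor for no effect and buffer without enzyme for full effect.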

The molecules below were run against Cruzipain (Trypanosoma cruzi) (UniProt P25779) (assay: qHTS Assay for Promiscuous and Specific Inhibitors of Cruzain (without detergent)). Conditions: purified cruzain, Z-FR-AMC fluorescence, no detergent.
Sequence of UniProt P25779 (P25779 whole entry, looked up): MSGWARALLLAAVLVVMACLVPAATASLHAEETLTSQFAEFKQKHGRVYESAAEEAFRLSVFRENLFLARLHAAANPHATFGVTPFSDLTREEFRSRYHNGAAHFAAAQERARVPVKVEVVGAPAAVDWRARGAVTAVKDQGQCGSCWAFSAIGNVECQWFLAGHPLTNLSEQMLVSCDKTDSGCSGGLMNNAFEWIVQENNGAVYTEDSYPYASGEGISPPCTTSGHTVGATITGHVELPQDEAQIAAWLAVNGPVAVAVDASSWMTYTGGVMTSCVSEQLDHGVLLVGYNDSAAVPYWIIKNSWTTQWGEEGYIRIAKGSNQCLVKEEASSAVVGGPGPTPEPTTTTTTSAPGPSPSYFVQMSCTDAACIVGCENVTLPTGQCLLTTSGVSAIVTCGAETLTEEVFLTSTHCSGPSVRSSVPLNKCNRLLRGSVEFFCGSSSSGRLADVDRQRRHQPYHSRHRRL
How it was run: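 Purified cruzain at 1.5 nM, pre-incubated 15 min with compound at room temperature in 100 mM sodium acetate pH 5.5, 5 mM DTT, 0.00005% Triton X-100. Reaction started with 2 uM Z-FR-AMC; AMC fluorescence increase over 60 s gives rate.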
In the case of `c1nnc(NCNc2nncs2)s1`, the max response, negative = inhibition is reported as inactive: -1.03%. `O=c1cc(CN2CCN(c3ccc(F)cc3)CC2)nc2sccn12` was tested, and the max response, negative = inhibition was inactive: 1.07%. For `CCCc1nc2sc3ccccc3c(=O)c2c(=O)n1Cc1ccco1`, the Potency was inconclusive: 25.1 µM [inhibitor, single point]. With `COc1cccc(C(=O)c2c(N)c(-c3nc(-c4ccccc4)cs3)c3ccccn23)c1` the Potency was active: 10 µM. With `O=[N+]([O-])c1cccnc1N1CCC(c2cc(-c3ccc(Cl)cc3)n[nH]2)CC1` the Potency was inconclusive: 31.6 µM [inhibitor, single point]. `CCOc1ccc(Cn2c(SCCCCC#N)nc3c2c(=O)n(C)c(=O)n3C)cc1OCC` was tested, and the Potency was inconclusive: 31.6 µM [activator, single point]. With `N#C/C(=C\c1ccc(-c2ccc(Br)cc2)o1)C(=O)NCCc1c[nH]c2ccccc12` the Potency was inconclusive: 31.6 µM [inhibitor, single point]. For `CC1CCc2c(sc3ncnc(NCCCOC(C)C)c23)C1` (stereo unspecified), the Potency was inconclusive: 39.8 µM [activator, single point]. For `NC(N)=Nc1nc(CCN2C(=O)c3ccccc3C2=O)cs1`, the Potency was inconclusive: 25.1 µM [inhibitor, single point]. `Cc1cccc(N=C2NC(=O)/C(=C3/C(=O)N(C)c4ccccc43)S2)c1C` was tested, and the Potency was inconclusive: 39.8 µM [inhibitor, single point]. With `CCCC(=O)Nc1nc(C)c(-c2csc(Nc3ccccc3OC)n2)s1` the max response, negative = inhibition was inactive: -22.9%. `COc1cc(NC(=O)CCS(=O)(=O)c2ccc3c(c2)CC(=O)N3C)cc(OC)c1OC` was tested, and the max response, negative = inhibition was inactive: 3.38%. For `CCN(CC)S(=O)(=O)c1ccc(C(=O)NNc2nc(-c3ccccc3)c3cc(Br)ccc3n2)cc1`, the Potency was inconclusive: 39.8 µM [inhibitor, single point]. In the case of `CCn1c2ccccc2c2cc(NC(=O)COc3ccccc3OC)ccc21`, the max response, negative = inhibition is reported as inactive: 7.04%. With `Cc1cccc(-n2nc(C(=O)c3ccco3)cc(-c3nc4ccccc4[nH]3)c2=N)c1` the Potency was inconclusive: 39.8 µM [inhibitor, single point]. With `O=C1S/C(=C\c2ccccc2)C(=O)N1CC(O)Cn1c2ccccc2c2ccccc21` (stereo unspecified) the Potency was active: 31.6 µM. For `CC(NC(=O)c1ccc2c(c1)CCN2S(=O)(=O)c1ccccc1)c1ccccc1` (stereo unspecified), the max response, negative = inhibition was inactive: -4.22%. In the case of `COc1ccc(CNC(=O)c2nc(SCc3ccccc3F)ncc2Cl)cc1`, the max response, negative = inhibition is reported as inactive: -19.4%. With `CCOC(=O)CCc1c(C)c2ccc(OC(C)C(=O)OCC)c(C)c2oc1=O` (stereo unspecified) the Potency was inconclusive: 25.1 µM [activator, single point]. In the case of `O=C(c1ccc2c(c1)N(Cc1ccc(F)cc1)C(=O)c1ccccc1S2(=O)=O)N1CCCC1`, the Potency is reported as inconclusive: 39.8 µM [activator, single point]. In the case of `COc1cccc(CNC(=O)Cn2ncn3nc(-c4cccs4)cc3c2=O)c1OC`, the max response, negative = inhibition is reported as inactive: -11.4%. With `Cc1ccc(CNC(=O)Cc2c(C)c3c(cc(C)c4c(C)coc43)oc2=O)cc1` the max response, negative = inhibition was inactive: 5.28%. `Cc1ccc2onc(CC(=O)N3CCN(c4cc(Cl)ccc4C)CC3)c2c1` was tested, and the max response, negative = inhibition was inactive: -7.82%. `CS(=O)(=O)N1CCC2(CCN(c3cccc(-c4ccccc4)c3)CC2)CC1` was tested, and the Potency was inconclusive: 31.6 µM [activator, single point]. In the case of `CCOC(=O)c1c(N)sc2c1CCC1C(=O)N(C3CCCCC3)C(=O)C21` (stereo unspecified), the max response, negative = inhibition is reported as inactive: -11.8%. For `COc1ccc(/C=C/C(=O)NC(=S)Nc2ccc(C(=O)O)cc2)cc1`, the Potency was inconclusive: 39.8 µM [inhibitor, single point]. With `COc1ccc(C(=O)NCC(=O)OCc2cccc(Br)c2)cc1` the max response, negative = inhibition was inactive: -1.57%. `CCCCCn1c(CCNC(=O)c2ccc(F)cc2)nc2ccccc21` was tested, and the Potency was inconclusive: 31.6 µM [activator, single point]. For `C/C(=N\O)c1cccc[n+]1Cc1ccccc1`, the max response, negative = inhibition was inactive: -2.53%. In the case of `CN(C)c1ncnc2ccc(-c3cccc(C#N)c3)cc12`, the max response, negative = inhibition is reported as inactive: -11.4%. With `COCCCNC(=O)CCc1c(C)nc2nc(-c3cc(OC)cc(OC)c3)nn2c1C` the Potency was inconclusive: 39.8 µM [activator, single point]. For `CCOC(=O)c1c(CSC(=N)N)n(-c2ccc(Br)cc2)c2cc(Br)c(OC(C)=O)cc12`, the Potency was inconclusive: 39.8 µM [inhibitor, single point]. `Cc1ccc(-n2ncc(C(=O)NCCN3CCCC3)c2C2CCN(C(=O)OC(C)(C)C)CC2)cc1C` was tested, and the max response, negative = inhibition was inactive: 8.49%. `O=C(Nc1cccc(Br)c1)c1ccc2nc(N3C(=O)CCC3=O)sc2c1` was tested, and the Potency was inconclusive: 31.6 µM [activator, single point]. `Cc1ccc(NS(=O)(=O)c2ccc(Cl)c(C(=O)Nc3ccccc3-c3nc4ccccc4[nH]3)c2)cc1C` was tested, and the Potency was inconclusive: 15.8 µM [inhibitor, partial curve, poor fit]. `COc1ccc2[nH]c(=O)c(CN(Cc3cccs3)C(=S)Nc3cccc(C)c3)cc2c1` was tested, and the Potency was inconclusive: 31.6 µM [inhibitor, single point]. In the case of `Cc1ccnc(NS(=O)(=O)c2ccc(NC(=O)c3ccc(S(=O)(=O)N4CC(C)OC(C)C4)cc3)cc2)n1` (stereo unspecified), the Potency is reported as inconclusive: 31.6 µM [activator, single point]. In the case of `Cc1c(C(=O)N2CCOCC2)[nH]c2ccc(OCc3ccccc3)cc12`, the Potency is reported as inconclusive: 31.6 µM [activator, single point]. `Cc1ccc(C)c(NC(=O)/C(C#N)=C/c2cn(CC(=O)NCc3ccco3)c3ccccc23)c1` was tested, and the Potency was active: 7.94 µM. `CCc1nnc(NC(=O)CSc2nc(-c3ccccc3)cc(-c3ccc(F)cc3)c2C#N)s1` was tested, and the Potency was active: 7.94 µM. With `CC1=CC(C)(C)N2C(=O)C3(SCC(=O)N3c3ccc(O)cc3)c3cc(C)cc1c32` (stereo unspecified) the Potency was inconclusive: 31.6 µM [activator, single point]. For `CO[C@@H](CCOCc1ccccc1)C[C@H]1O[C@H](C(=O)OC(C)C)C=C[C@@H]1C`, the Potency was inconclusive: 1 µM [inhibitor, single point]. With `Cc1cccc(NC(=O)CSc2nc(C)c(CC(=O)c3ccc(Br)cc3)c(C)c2C#N)c1C` the Potency was active: 12.6 µM. In the case of `COc1ccc(NC(=O)c2cc3c(=O)n(C)c4ccccc4c3n2C)cc1OC`, the Potency is reported as inconclusive: 12.6 µM [activator, partial curve]. `Cc1cc2cc(CNC(=O)c3ccc(S(=O)(=O)N4CCCC4)cc3)ccc2n1C` was tested, and the Potency was inconclusive: 25.1 µM [inhibitor, single point]. In the case of `O=C(/C=C/c1ccco1)Nc1nc(-c2ccccc2)cs1`, the Potency is reported as inconclusive: 31.6 µM [inhibitor, single point]. With `Cc1nc2nc(SCC(=O)NC3CCCCC3)nn2c(C)c1Cc1ccccc1Cl` the Potency was inconclusive: 39.8 µM [inhibitor, single point]. In the case of `COc1ccc(OC)c2sc(N3CCN(C(=O)CCS(=O)(=O)c4ccc(F)cc4)CC3)nc12`, the Potency is reported as inconclusive: 31.6 µM [activator, single point]. `CC(C)c1ccc(Nc2ncnc3onc(-c4ccc(F)cc4)c23)cc1` was tested, and the max response, negative = inhibition was inactive: -6.96%. `CC(C)CC(c1nnnn1CCc1ccccc1)N1CCN(C(=O)c2ccco2)CC1` (stereo unspecified) was tested, and the Potency was inconclusive: 31.6 µM [activator, single point]. In the case of `CCOC(=O)c1c(C)[nH]c(C)c1S(=O)(=O)N1CCCC(C(=O)NCc2cccc(OC)c2)C1` (stereo unspecified), the max response, negative = inhibition is reported as inactive: 7.99%. With `COc1ccc2c(c1)[nH]c(=O)c1sc3ccccc3c12` the Potency was inconclusive: 31.6 µM [inhibitor, single point]. `CC(=O)Cc1nsc(NC(=O)c2cc(-c3cccc(C(F)(F)F)c3)oc2C)n1` was tested, and the Potency was inconclusive: 25.1 µM [inhibitor, single point]. `CCOC(=O)c1cc(-c2ccc(OC)cc2)n(CCC(=O)NCc2ccc(OC)cc2)c1C` was tested, and the max response, negative = inhibition was inactive: 7.08%. With `Cc1[nH]nc(SCC(=O)N2CCC(C)CC2)c1[N+](=O)[O-]` the max response, negative = inhibition was inactive: -20%. With `O=C(NC12CC3CC(CC(C3)C1)C2)c1ccc(-c2ccc(Br)cc2)o1` the Potency was inconclusive: 39.8 µM [inhibitor, single point]. In the case of `Cc1cccc(NC(=O)C2C3CCC4C(CCC32)C4(Cl)Cl)c1` (stereo unspecified), the Potency is reported as inconclusive: 39.8 µM [inhibitor, single point]. With `Cc1cccc(NC(=S)N(Cc2cccs2)Cc2cc3cc(C)cc(C)c3[nH]c2=O)c1` the Potency was active: 25.1 µM. `C#C[C@@]1(O)CC[C@@H]2[C@@H]3CCC4=C(CCC(=O)C4)[C@H]3CC[C@]21C` was tested, and the max response, negative = inhibition was inactive: -5.08%. With `Cc1nc(S/C(=C/c2ccc(-c3ccc(Cl)cc3)o2)C(=O)O)n[nH]1` the Potency was active: 12.6 µM. `O=C(CCS(=O)(=O)c1nc(-c2cccs2)cc(C(F)(F)F)n1)Nc1ccc(OC(F)(F)F)cc1` was tested, and the Potency was inconclusive: 39.8 µM [inhibitor, single point]. With `COC(=O)c1ccccc1NC(=O)C1=CC(c2ccc(C)cc2)=NS(=O)(=O)N1C` the Potency was inconclusive: 5.01 µM [activator, full curve, poor fit]. In the case of `O=C(c1cc([N+](=O)[O-])ccc1N1CCCCC1)N1CCc2ccccc21`, the max response, negative = inhibition is reported as inactive: 5.08%. With `COC(=O)c1ccc(C(NC(=O)OCc2ccccc2)/C(=C/[C@@H](C)C(=O)NCc2ccc(OC)c(O)c2)c2cccnc2)cc1` (stereo partly specified) the Potency was inconclusive: 39.8 µM [activator, single point]. For `O=C(COc1ccccc1Cl)Nc1cc(-c2ccccc2F)nn1-c1ccccc1`, the max response, negative = inhibition was inactive: 2.83%. In the case of `Cc1ccc(S(=O)(=O)c2c(N)n(NC(=O)C3CC3)c3nc4ccccc4nc23)cc1`, the Potency is reported as inconclusive: 31.6 µM [activator, single point].
